The campaign covered roughly 52,000 compounds. About 1,700 (3.3%) were called active. Rule as the data show it: active = survival mostly below about 52% (no sharp cut-off); inactive = mostly above about 56%. Some of the results follow.

The test system of this test is Wild type. Description: S. aureus survival, RN4220 and DeltatarO strains – OD600, teichoic acid synthesis inhibitors, primary screen (AID 463173). Particulars: S. aureus RN4220 wild type/DeltatarO growth, OD600, 18 h, stronger effect = lower value, screened at 18.75 µg/mL (by protocol).
For the compound `Cc1ccc(-c2nc3ccccc3[nH]2)cc1NC(=O)C(C)C`, the survival was inactive: 110%.

With `COc1ccccc1N1CCN(C(=O)c2nn(-c3ccc(C)cc3)c(=O)n(C)c2=O)CC1`, the survival is inactive: 83%. Turning to `COCCCNC(=O)c1oc2c(c1C)-c1nn(Cc3cccc(Cl)c3)cc1CC2`, the survival was inactive: 85%.

`CC1Cc2cc(S(=O)(=O)N3CCN(c4ccccc4F)CC3)ccc2N1C(=O)C1CCC1` (centres undefined): the survival is inactive: 66%. For `Cc1cc(F)ccc1S(=O)(=O)NCC(c1ccco1)S(=O)(=O)c1cccs1` (centres undefined), the survival is inactive: 128%. With `CC(C)(C)OC(=O)N1CC=C2C(C1)C(c1cccc(F)c1)C(C#N)=C(N)C2(C#N)C#N` (centres undefined) the figure was inactive: 134%. Under `CCOC(=O)c1ccc(Nc2c(-c3ccc(O)c(OC)c3)nc3nc[nH]n23)cc1` stands inactive: 74%.

Consider `COc1cc(NS(=O)(=O)c2ccc3c(c2)CCN3S(C)(=O)=O)cc(OC)c1`, for which the survival was inactive: 73%. Under `Cc1cc2nnc(SCC(=O)Nc3ccc(F)c(Cl)c3)n2c2ccccc12` stands inactive: 68%; under `CC1CCCC(C)N1C(=O)CN1CCC(O)(c2ccccc2)CC1` (centres undefined), inactive: 112%; under `CCc1nn2c(=O)cc(COC(=O)c3cccc(NC(=O)c4ccccc4Cl)c3)nc2s1`, inactive: 71%.

Take `CCCn1ccc2c(OCC(=O)NCc3ccc(C)cc3)cccc2c1=O`: the survival is inactive: 101%. Under `CCc1ccc2c(c1)c(=O)c(S(=O)(=O)c1ccc(F)cc1)cn2CC(=O)Nc1ccc(C)cc1C` stands inactive: 131%; under `Cc1ccc(CNC(=O)C2CCCN(S(=O)(=O)c3cccc4nsnc34)C2)cc1` (centres undefined), inactive: 130%; under `O=C(CSc1c2c(nc3ccc(Cl)cc13)CCCC2)N1CCN(c2cccc(Cl)c2)CC1`, inactive: 55%. Under `COc1ccc(CNC(=O)c2cnc3sc(N4CCCC4)nn3c2=O)cc1OC` stands inactive: 68%. Under `Cc1ccc2c(c1)C(c1ccc(F)cc1)N(C(=O)COc1ccc(Cl)cc1Cl)CC(=O)N2` (centres undefined) stands inactive: 64%. For `CCN(CC)CCSc1nc2ccc(OC)cc2[nH]1`, the survival was inactive: 102%. Take `CC1=Nc2ccccc2N=C(C)C1`: the survival is inactive: 115%.

For the compound `Cc1cccc(NC(=O)c2ccc(N(Cc3ccccc3)S(C)(=O)=O)cc2)c1`, the survival was inactive: 66%. Under `CCN(CCCNC(=O)c1cc2c(=O)n(C)c3ccccc3c2s1)Cc1ccccc1` stands inactive: 77%.

Turning to `Cc1cc2ncn(CCCCOc3ccccc3)c2cc1C`, the survival was active: 20%. Under `CC1CCC(NC(=O)c2ccc3c(c2)N(Cc2ccccc2)C(=O)c2ccccc2S3=O)CC1` (centres undefined) stands inactive: 146%; under `CCOC(=O)c1c(C)[nH]c(CCC(=O)Nc2cc(C)ccc2OC)c1C`, inactive: 80%; under `COc1cc(-c2nnn(CC(=O)Nc3ccc(OC(F)(F)F)cc3)n2)cc(OC)c1OC`, inactive: 92%. Consider `CCOC(=O)c1cccc(NC(=O)CN2C(=O)c3ccccc3Sc3ncccc32)c1`, for which the survival is inactive: 117%.

For the compound `COc1cc(NC(=O)CC2C(=O)N(c3ccc(Cl)cc3)C(=O)N2Cc2cccs2)cc(OC)c1` (centres undefined), the survival is inactive: 80%. Under `Cc1ccc(C(=O)NCc2ccc(N(C)C)cc2)cc1NC(=O)c1nsc2ccccc12` stands inactive: 128%; under `CN1C(C(=O)Nc2ccc(F)cc2F)=CC(c2ccco2)=NS1(=O)=O`, inactive: 87%; under `O=C(CSCc1ccccc1Cl)N1CCN(c2ccc(F)cc2)CC1`, inactive: 64%.

For `Cc1nnc(NCc2ccccc2)c2c1nnn2Cc1ccccc1Cl`, the survival was inactive: 90%. With `O=C(Cn1ncc2c1-c1ccccc1OC2)N1CCN(c2ccccc2F)CC1` the figure was inactive: 77%. Under `CCOC(=O)/C(C#N)=C/c1cc(Br)cs1` stands inactive: 98%; under `CN1c2ccccc2Sc2cc(C=C(C#N)C#N)ccc21`, inactive: 108%; under `COc1ccccc1CNC(=O)C1CCCN(S(=O)(=O)c2ccc3c(c2)CCCN3C(C)=O)C1` (centres undefined), inactive: 64%. Under `Cc1cc2oc(C(=O)Nc3c(C(=O)Nc4ccccc4)oc4ccccc34)cc(=O)c2cc1C` stands inactive: 114%; under `Cc1cccc(C)c1NC(=O)c1oc2ccc3c(c2c1C)C(=O)CC(C)(C)O3`, inactive: 71%; under `Cc1cccn2c(=O)c(C(=O)NCCCN3CCCCC3C)c(O)nc12` (centres undefined), inactive: 87%. Turning to `COc1ccc(OCC(O)Cn2c(C(C)C)nc3ccccc32)cc1` (centres undefined), the survival is inactive: 107%. With `CCc1ccc(-c2nn(CC(=O)Nc3ccccc3)c3c2cnc2ccc(F)cc23)cc1` the figure was inactive: 78%. Under `COc1ccc(N2CCN(C(=O)c3cn(CC(C)C)c(=O)c4c3c3ccccc3n4C)CC2)cc1` stands inactive: 73%; under `O=C(Cn1c(=O)c2cccn2c2ccccc21)Nc1cc(F)ccc1F`, inactive: 71%; under `CCOC(=O)c1cc(-c2ccccc2)n(-c2cccc(C(=O)Nc3ccc(OC)cc3)c2)c1C`, inactive: 77%.

As for `CCOc1ccc(N(C(=O)Cn2nnc3ccccc32)C(C(=O)NCc2ccccc2)c2ccc(OC)cc2)cc1` (centres undefined), the survival is inactive: 83%.

Turning to `CC(C)(C)C1CCc2c(sc(NC(=O)Cn3nnc(-c4ccccc4F)n3)c2C#N)C1` (centres undefined), the survival is inactive: 85%. With `CC(=O)N1CCCc2cc(S(=O)(=O)N3CCC(C(=O)NCc4ccc(C)cc4)CC3)ccc21` the figure was inactive: 60%; with `Cc1onc(-c2ccccc2Cl)c1C(=O)Oc1cc(F)cc(F)c1`, inactive: 82%; with `COC(=O)c1ccccc1NC(=O)Cn1c(=O)n(-c2cccc(OC)c2)c(=O)c2c(C)c(C(=O)N(C)C)sc21`, inactive: 121%. Under `CCN(CC)c1nc(Nc2ccccc2)nc(Oc2ccc(=O)[nH]n2)n1` stands inactive: 113%; under `CCC(C(=O)NCCc1ccc(SC)cc1)n1nc(C)c2sc3ccccc3c2c1=O` (centres undefined), inactive: 81%; under `COc1ccc(-c2[nH]ncc2C(=O)NCc2ccccc2C)cc1`, inactive: 72%. Under `COc1ccc(OCC(=O)OCc2cc(=O)n3nc(C4CCCCC4)sc3n2)cc1` stands inactive: 71%. As for `CC(=O)Nc1cccc(NC(=O)C(=O)NCCc2sc(-c3ccccc3)nc2C)c1`, the survival was inactive: 81%. With `CCN(CC)CCNC(=O)c1cn(CC)c2ccc(S(=O)(=O)N3CCOCC3)cc2c1=O` the figure was inactive: 86%; with `Cc1ccc(CCNC(=O)Cn2nc(-c3ccc(C)cc3)ccc2=O)cc1`, active: -3%; with `Cc1ccc(C)c(NC(=O)CSc2ncc(S(=O)(=O)c3ccc(C)c(Cl)c3)c(=O)[nH]2)c1`, inactive: 65%.

Turning to `CSc1cccc(Nc2nc3c(S(=O)(=O)c4ccccc4)nnn3c3ccc(Cl)cc23)c1`, the survival was inactive: 84%.

`CNC(=S)N1CCN(C(=O)/C(=C/c2ccc(F)cc2)NC(C)=O)CC1`: the survival is inactive: 90%. With `O=C(Cn1ncc2ccc(Cl)cc21)NCc1ccc(F)cc1` the figure was inactive: 116%; with `O=C(c1ccc2c(c1)N(Cc1ccc(F)cc1)C(=O)c1ccccc1S2=O)N1CCC(Cc2ccccc2)CC1` (centres undefined), inactive: 92%; with `COc1ccccc1NC(=O)c1cccc(S(=O)(=O)N2CCCCCC2)c1`, inactive: 69%. Under `COc1ccc(Cn2c(SCc3ccc(C(=O)NC(C)C)cc3)nc3cccnc32)cc1` stands inactive: 73%; under `CCc1ccc(CNC(=O)c2ccc(NC(=O)N3CCCCc4ccccc43)cc2)cc1`, inactive: 84%; under `O=c1ccnc(NCCc2ccccc2)[nH]1`, inactive: 113%. Under `Cc1ccc(C(=O)Nc2cccc(C(=O)O)c2)cc1S(=O)(=O)N1CCCC1` stands inactive: 90%; under `Cc1c(Cl)cccc1NC(=O)Nc1nnc(N2CCCCCC2)s1`, inactive: 86%. Regarding `C=C(C)CSc1nc2sc3c(c2c(=O)n1-c1ccccc1)CC(C(C)C)OC3` (centres undefined), the survival was inactive: 72%. Under `NC(=O)CSc1nc2cc(Cl)ccc2s1` stands inactive: 105%; under `CCC1CN(C(=O)N2CCC(C(=O)NCc3cccc(C)c3)CC2)c2ccccc2O1` (centres undefined), inactive: 86%; under `CCCCC(CC)CNC(=O)CN1C(=O)CSc2ccc(S(=O)(=O)N3CCOCC3)cc21` (centres undefined), inactive: 72%.

Turning to `O=C(Cn1c(=O)nc(-c2ccccc2F)c2cc(Cl)ccc21)N1CCN(c2ccccc2F)CC1`, the survival was inactive: 71%.

As to `COc1ccc(CNC(=O)c2c3c(nc4ccccc24)C(=O)N(C2CCCCC2)C3)c(OC)c1`, the survival is inactive: 63%. Under `COC(=O)c1scc(-c2ccc(C)cc2)c1S(=O)(=O)Nc1cc(OC)c(OC)c(OC)c1` stands inactive: 80%; under `CCOc1ccccc1N(CC)C(=O)c1cc2c(=O)[nH]c3ccc(C)cc3c2s1`, inactive: 98%. With `Cc1ccc(N2C(=O)C3CN4CCCN4C3C2=O)cc1` (centres undefined) the figure was inactive: 99%. For the compound `Cc1ccc(NC(=O)/C(C#N)=C/c2ccc(C(C)C)cc2)cc1C`, the survival is inactive: 76%. Under `Clc1cccc(-n2ncc3c(N4CCCCC4)ncnc32)c1` stands inactive: 128%; under `O=C(Cn1cc(S(=O)(=O)Cc2cccc(Cl)c2)c2ccccc21)NCCc1ccccc1`, inactive: 71%.

For the compound `CC(=O)Nc1nonc1-c1nnc(SCC(=O)N(C)c2ccccc2)n1C`, the survival is inactive: 83%. Turning to `COc1cc2c3c(c1OC)C1(C=CC(=NNC(N)=O)C=C1)CC3N(C(C)=O)CC2` (centres undefined), the survival is inactive: 99%.

For `CCN(c1cccc(C)c1)S(=O)(=O)c1ccc2[nH]cc(C(=O)NCCCOC)c(=O)c2c1`, the survival was inactive: 76%.

Take `O=C(O)C1C2C=CC(C2)C1C(=O)NCc1cccs1` (centres undefined): the survival was inactive: 113%. As for `COc1ccc(CNC(=O)C(=O)Nc2ccc(OC)cc2OC)cc1`, the survival was inactive: 80%. With `CCOC(=O)c1cnc2c(C)c(Cl)ccc2c1NCCc1ccccc1` the figure was active: -3%; with `CCOc1ccc(CCNC(=O)CN2C(=O)COc3ccc(S(=O)(=O)N4CCCC4)cc32)cc1`, inactive: 90%. Under `Cc1ccc(C(C)C)c(OCC(O)CN2CCN(c3ccccc3F)CC2)c1` (centres undefined) stands active: -3%. With `Cc1ccc(NC(=O)CCC(=O)N2Cc3ccccc3Oc3ncccc32)c(C)c1` the figure was inactive: 80%; with `CC(C)c1ccc(C2NC(=O)c3n[nH]c(-c4cccs4)c32)cc1` (centres undefined), inactive: 89%. As to `COc1ccc(Cl)cc1S(=O)(=O)NCc1ccc2c(c1)CCN2C(=O)c1cccc(C)c1`, the survival was inactive: 128%.

The values above are taken from PubChem BioAssay AID463173 (ICCB-Longwood Screening Facility, Harvard Medical School, 2010).
